How the values were obtained:
Mouse [1] = assay: concentration in plasma after dosing; details: 1 h; dosed: Benzophenone; 60 mg/kg; oral; Male; B6C3F1
Rat [2] = assay: concentration in plasma after dosing; details: dosed: Benzophenone, 10 mg/kg, oral, Female, F344
Mouse [3] = assay: concentration in plasma after dosing; details: 1 h; dosed: Benzophenone; 15 mg/kg; oral; Male; B6C3F1
Rat [4] = assay: concentration in blood after dosing; details: 0.25 h; dosed: Benzophenone; 5 mg/kg; oral; Male; F344
Rat [5] = assay: concentration in plasma after dosing; details: dosed: Benzophenone, 5 mg/kg, oral, Female, F344
Mouse [6] = assay: concentration in plasma after dosing; details: 3 h; dosed: Benzophenone; 15 mg/kg; iv; Female; B6C3F1
Rat [7] = assay: concentration in plasma after dosing; details: 16 h; dosed: Benzophenone; 10 mg/kg; oral; Male; F344
Rat [8] = assay: concentration in blood after dosing; details: 5 min; dosed: Benzophenone; 10 mg/kg; oral; Female; F344
Rat [9] = assay: concentration in plasma after dosing; details: dosed: Benzophenone, 5 mg/kg, oral, Male, F344
Mouse [10] = assay: concentration in plasma after dosing; details: 0.5 h; dosed: Benzophenone; 30 mg/kg; oral; Male; B6C3F1
Mouse [11] = assay: concentration in plasma after dosing; details: 0.25 h; dosed: Benzophenone; 15 mg/kg; oral; Male; B6C3F1
Mouse [12] = assay: concentration in plasma after dosing; details: 2.5 min; dosed: Benzophenone; 15 mg/kg; oral; Female; B6C3F1
Mouse [13] = assay: concentration in plasma after dosing; details: 6 h; dosed: Benzophenone; 15 mg/kg; oral; Male; B6C3F1
Mouse [14] = assay: concentration in plasma after dosing; details: 3 h; dosed: Benzophenone; 15 mg/kg; iv; Male; B6C3F1
Mouse [15] = assay: concentration in plasma after dosing; details: 10 min; dosed: Benzophenone; 15 mg/kg; iv; Female; B6C3F1
Rat [16] = assay: concentration in blood after dosing; details: 0.5 h; dosed: Benzophenone; 10 mg/kg; oral; Male; F344
Rat [17] = assay: concentration in plasma after dosing; details: dosed: Benzophenone, 10 mg/kg, oral, Female, F344; remark: listed apart in the source
Mouse [18] = assay: concentration in plasma after dosing; details: 3 h; dosed: Benzophenone; 60 mg/kg; oral; Male; B6C3F1
Mouse [19] = assay: concentration in plasma after dosing; details: 0.125 h; dosed: Benzophenone; 30 mg/kg; oral; Male; B6C3F1
Mouse [20] = assay: concentration in plasma after dosing; details: 3 h; dosed: Benzophenone; 30 mg/kg; oral; Male; B6C3F1
Mouse [21] = assay: concentration in plasma after dosing; details: 5 min; dosed: Benzophenone; 60 mg/kg; oral; Female; B6C3F1
Rat [22] = assay: concentration in plasma after dosing; details: dosed: Benzophenone, 5 mg/kg, oral, Female, F344; remark: listed apart in the source
Mouse [23] = assay: concentration in plasma after dosing; details: 5 min; dosed: Benzophenone; 30 mg/kg; oral; Male; B6C3F1
Rat [24] = assay: concentration in blood after dosing; details: 10 min; dosed: Benzophenone; 5 mg/kg; oral; Male; F344
Rat [25] = assay: concentration in plasma after dosing; details: dosed: Benzophenone, 5 mg/kg, oral, Female, F344; remark: listed apart in the source
Mouse [26] = assay: concentration in plasma after dosing; details: 10 min; dosed: Benzophenone; 15 mg/kg; iv; Male; B6C3F1
Rat [27] = assay: concentration in plasma after dosing; details: dosed: Benzophenone, 5 mg/kg, oral, Female, F344; remark: listed apart in the source
Mouse [28] = assay: concentration in plasma after dosing; details: 1.5 h; dosed: Benzophenone; 30 mg/kg; oral; Male; B6C3F1
Rat [29] = assay: concentration in blood after dosing; details: 0.25 h; dosed: Benzophenone; 5 mg/kg; oral; Female; F344
Rat [30] = assay: concentration in blood after dosing; details: 0.25 h; dosed: Benzophenone; 10 mg/kg; oral; Male; F344
Mouse [31] = assay: concentration in plasma after dosing; details: 0.125 h; dosed: Benzophenone; 60 mg/kg; oral; Female; B6C3F1
Mouse [32] = assay: concentration in plasma after dosing; details: 0.25 h; dosed: Benzophenone; 60 mg/kg; oral; Female; B6C3F1
Rat [33] = assay: concentration in blood after dosing; details: 0.125 h; dosed: Benzophenone; 5 mg/kg; oral; Male; F344
Mouse [34] = assay: concentration in plasma after dosing; details: 5 min; dosed: Benzophenone; 15 mg/kg; oral; Female; B6C3F1
Mouse [35] = assay: concentration in plasma after dosing; details: 0.5 h; dosed: Benzophenone; 30 mg/kg; oral; Male; B6C3F1; remark: listed apart in the source
Mouse [36] = assay: concentration in plasma after dosing; details: 6 h; dosed: Benzophenone; 60 mg/kg; oral; Female; B6C3F1
Rat [37] = assay: concentration in plasma after dosing; details: 16 h; dosed: Benzophenone; 5 mg/kg; oral; Male; F344
Mouse [38] = assay: concentration in plasma after dosing; details: 0.75 h; dosed: Benzophenone; 15 mg/kg; oral; Male; B6C3F1
Rat [39] = assay: concentration in plasma after dosing; details: dosed: Benzophenone, 5 mg/kg, oral, Male, F344; remark: listed apart in the source
Rat [40] = assay: concentration in plasma after dosing; details: dosed: Benzophenone, 5 mg/kg, oral, Female, F344; remark: listed apart in the source
Mouse [41] = assay: concentration in plasma after dosing; details: 1 h; dosed: Benzophenone; 30 mg/kg; oral; Female; B6C3F1

O=C(c1ccccc1)c1ccccc1 [Benzophenone]
Details | concentration in blood [ng/mL] | concentration in plasma [ng/mL]
Mouse [1] | – | 730
Mouse [3] | – | 170
Mouse [6] | – | 154
Mouse [10] | – | 645
Mouse [11] | – | 469
Mouse [12] | – | 63.8
Mouse [13] | – | 15.1
Mouse [14] | – | 52.3
Mouse [15] | – | 3710
Mouse [18] | – | 121
Mouse [19] | – | 1820
Mouse [20] | – | 69.9
Mouse [21] | – | 5060
Mouse [23] | – | 1500
Mouse [26] | – | 2930
Mouse [28] | – | 207
Mouse [31] | – | 1580
Mouse [32] | – | 3610
Mouse [34] | – | 294
Mouse [35] | – | 590
Mouse [36] | – | 104
Mouse [38] | – | 200
Mouse [41] | – | 367
Rat [4] | 841 | –
Rat [7] | – | 46.8
Rat [8] | 711 | –
Rat [16] | 1480 | –
Rat [24] | 820 | –
Rat [29] | 885 | –
Rat [30] | 873 | –
Rat [33] | 389 | –
Rat [37] | – | 20.9

Details | concentration in plasma [ng/mL]
Rat [2], 1 h | 216
Rat [2], 2.5 min | 39.6
Rat [5], 0.5 h | 220
Rat [5], 10 h | 58.5
Rat [9], 6 h | 69
Rat [9], 10 min | 178
Rat [17], 2 h | 249
Rat [17], 5 min | 596
Rat [22], 0.25 h | 281
Rat [22], 24 h | 16.2
Rat [25], 2 h | 57.9
Rat [25], 5 min | 101
Rat [27], 1 h | 169
Rat [27], 2.5 min | 22
Rat [39], 0.25 h | 210
Rat [39], 24 h | 15
Rat [40], 1 h | 177
Rat [40], 2.5 min | 31.8
